Results taken from PubChem BioAssay AID1963576 (National Center for Advancing Translational Sciences (NCATS), 2024).
Hit rate of the full screen: of about 46,000 compounds, about 60 (0.1%) were called active. Inconclusive results (about 3%) are left out. The call rests on the fitted dose curve; in most records, active means well fitted inhibition curve with a large enough effect; inconclusive means small, poorly fitted or top-dose-only effect; inactive means no such curve, though single readings can be large or run the other way. This is one part of the list.

Experiment: Primary qHTS assay for Inhibitors of ovarian cancer metastasis using an organotypic tumor microenvironment (TME) model. Further: nearly all actives have a fitted effect of over 65% in size.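 On activity change, negative = inhibition: plate controls were DMSO wells for no effect and tomatine positive control wells for full effect.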
Conditions: SKOV3ip1-GFP adhesion/invasion on 3D omental model, fluorescence; series mostly up to 45.8 µM; activity change, negative = inhibition: at the top concentration
Summary of the method: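 qHTS, 4-pt dose (0.36-46 umol/L); SKOV3ip1-GFP, 1,200 cells/well, no FBS; primary omental fibroblast/mesothelial co-culture 48 h pre-grown; 2 h RT + 16 h 37 C; PBS wash, 4% PFA; GFP count 488/509 nm.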

outcome, inactive:
CC1CCN(C(=O)c2cc(-c3ccc(Br)cc3)on2)CC1, CC(C)c1ccc(N2C(=O)CSC23C(=O)N(C)c2ccccc23)cc1 (stereo not given), Cc1c(C(=O)N(Cc2ccc(N(C)C)cc2)CC2CCCO2)oc2ccc(Cl)cc12 (stereo not given), Cc1ccc(-n2nc(CO)c(C(=O)NCCCc3ccccc3)n2)cc1C, CCOC(=O)c1c(C)[nH]c(C)c1S(=O)(=O)N1CCCC(C(=O)Nc2ccc(C)cn2)C1 (stereo not given), CCOc1ccc2nc(Cl)c(C3CC(c4ccc(OC)cc4)=NN3S(C)(=O)=O)cc2c1 (stereo not given), CCOc1ccc(NC(=O)C2CCCN(c3ccc(Sc4ccc(C)cc4)nn3)C2)cc1 (stereo not given), O=C(CCCN1C(=O)C(c2ccccc2)Oc2cccnc21)Nc1ccccc1C(F)(F)F (stereo not given), Cc1cccc(NC(=O)c2ccc3snnc3c2)c1C, COC(=O)c1c(SC)nc2ccccc2c1OCc1ccc(Cl)cc1, CCOc1ccccc1NC(=O)C(CC(C)C)NS(=O)(=O)c1ccc2c(c1)oc(=O)n2C (stereo not given), O=c1cc(-c2ccccc2)nc(SCc2nc(-c3ccc(Cl)cc3)no2)[nH]1, COc1ccc(N2Cc3cccc(C(=O)Nc4cc(C)cc(C)c4)c3C2=O)cc1, CCN(CC)S(=O)(=O)c1nnc(NC(=O)COc2ccccc2F)s1, COCCCn1c(=N)c(C(=O)NCc2ccco2)cc2c(=O)n3ccccc3nc21, Cc1ccc(-n2c3nc(=O)[nH]c(=O)c-3cc3c(C)nn(-c4ccccc4)c32)cc1Cl, CN(C)S(=O)(=O)c1ccc2c(c1)N(CC(=O)Nc1ccc(OC(F)(F)F)cc1)C(=O)CS2, CCC(=O)N1CCc2cc(Br)cc(S(=O)(=O)N3CCN(c4ccc(C)cc4)C(C)C3)c21 (stereo not given)

Activity change, negative = inhibition, inactive:
CCCN(C(=O)c1cc2c(=O)[nH]c3ccc(C)cc3c2s1)c1ccc(CC)cc1 0.981%, O=C1[C@@H]2CSC(c3ccc(Cl)cc3)N2C(=O)N1c1ccccc1 (stereo not given in full) -24.3%, COc1ccc(-c2noc(COc3cc(C)ccc3C)n2)cc1OC -6.23%, O=C(COc1ccc(F)cc1)Nc1ccc2nc(SCC(=O)N3CCOCC3)sc2c1 -4.47%, CCOc1ccc(NC(=O)CCNS(=O)(=O)c2cccc3nonc23)cc1 3.22%, COc1ccc(C2=NC(c3ccncc3)=Nc3ccc(OC)cc3N2)cc1 -5.78%, COc1ccc(-c2noc(N3CCC(C(=O)N4CCN(c5cccc(C)c5C)CC4)CC3)n2)cc1 -7.74%, COc1ccc2c(c1)c(N1CCCC1=O)c(C(=O)Nc1ccccc1C(F)(F)F)n2C 9.02%, COc1ccc(C2=C(C)C(=O)N(Cc3ccc(C(=O)NCc4cccc(C)c4)cc3)S2(=O)=O)cc1 -5.41%, CCOc1ccc(Nc2nc3cc(Cl)c(Cl)cc3nc2-n2nc(C)cc2C)cc1 17.7%, COc1ccc(Cl)cc1NC(=O)c1cn(C2CCCCC2)c(=O)c2c1c1ccccc1n2C 4.25%, COc1ccc(N2CCN(c3csc4ccc(Cl)cc4c3=O)CC2)cc1 -10.3%, COc1ccccc1CCNC(=O)C1CCN(c2nnc(-n3cccc3CNc3ccc(C)cc3)s2)CC1 -26.5%, COc1ccccc1Cn1cc(C(=O)c2ccc(C)cc2)c(=O)c2cc(C)ccc21 -10.7%, CCN(c1ccccc1)c1ccc2cc(S(=O)(=O)N3CCCC3)ccc2n1 -6.25%, Cc1cnn(C)c1C(=O)Nc1cc(Nc2ccc3c(C=Cc4ccccn4)n[nH]c3c2)ccc1F 12.9%, CCc1ccccc1Nc1nn2c(=O)c3ccc(C(=O)NCc4ccccc4OC)cc3nc2s1 -4.66%, CCOc1ccc(Nc2ncnc3c2nc2n3CCCC2)cc1 4.09%, Cc1ccc(C)c(S(=O)(=O)c2nnn3c2nc(NC(C)C)c2sccc23)c1 2.4%, O=C(O)c1ccc2nc(-c3cc4cccc(O)c4oc3=O)[nH]c2c1 -8.14%, NS(=O)(=O)c1ccc(NC(=O)CN2C(=O)COc3ccc(Cl)cc32)cc1 18.5%, COc1ccc(CNC(=O)c2cc(-c3ccc(C)cc3)nc3n[nH]c(-c4ccc(Br)cc4)c23)cc1 -15.8%, Cc1ccccc1C(=O)NC1(C(F)(F)F)N=C(c2ccccc2)N(C2CCCCC2)C1=O (stereo not given) 55.5%, CCOC(=O)c1oc2ccc(S(=O)(=O)n3nc(-c4cc(OC)c(OC)c(OC)c4)cc3N)cc2c1C 7.51%, CCOC(=O)CNC(=O)Nc1cc(C(=O)NCc2ccccc2OC)ccc1N1CCCC1 7.88%, CCOc1ccc(NC(=O)CSc2ccc(-c3sc(-c4ccccc4)nc3C)nn2)cc1 3.18%, CCOc1ccccc1CNC(=O)c1c(C)oc2ncnc(N3CCOCC3)c12 1.84%, COc1ccc(Cl)cc1NC(=O)C1CCCN(c2ncnc3onc(C)c23)C1 (stereo not given) 6.28%, CCC(Oc1ccccc1F)C(=O)N1CCC(c2nc3ccccc3s2)CC1 (stereo not given) 5.86%, O=C(NC(=O)c1ccccc1)Nc1ccc(-c2cc(C(F)(F)F)nn2-c2ccccc2)cc1 1.75%, COC(=O)C(CCSC)NC(=O)c1cc2c(n(-c3ccc(Cl)cc3)c1=O)CCCC2=O (stereo not given) 17.3%, CC(C)C(=O)Nc1ccccc1OCc1cc(=O)n2ccccc2n1 -6.45%, Cc1ccc2oc(-c3ccc(C)c(NC(=O)c4ccc(N5CCC(C)CC5)c([N+](=O)[O-])c4)c3)nc2c1 -10.6%, CCCn1c(CNC(=O)c2ccc(F)cc2)nc2ccccc21 -27.7%, Cc1cccc(NC(=O)c2cc3c(=O)n4cccc(C)c4nc3s2)c1C -14.6%, O=c1c2cc3c(cc2n(Cc2ccc(F)cc2)c(=O)n1Cc1nc(-c2ccccc2)no1)OCO3 -46.3%, COc1cc(CNC(=O)c2ccc3nc(CCc4ccccc4)oc3c2)cc(OC)c1OC 8.22%, O=C1c2c(O)cc(O)cc2O[C@H](c2cc(O)c(O)c(O)c2)[C@H]1O -2.97%, C[C@]12C=CC(=O)C=C1CC[C@@H]1[C@@H]2[C@@H](O)C[C@@]2(C)[C@@H]1CC[C@]2(O)C(=O)CO 8.91%, COc1ccc2c(c1)CCc1c(C(=O)Nc3c(C)nn(Cc4ccccc4C)c3C)noc1-2 -13.7%, Clc1ccc2c(c1)NC(c1ccncc1)=NC(c1cccs1)=N2 3.24%, CCN1CCN(C(=O)c2cnn(-c3cccc(Cl)c3)c2C2CCN(C(=O)OC(C)(C)C)CC2)CC1 7.92%, O=C(COCc1cc(-c2ccc3c(c2)OCO3)on1)N1CCN(c2cccc(Cl)c2)CC1 -3.96%, Cc1ccc(S(=O)(=O)N(Cc2nc(-c3cccc(C)c3)no2)C2CCCCC2)cc1 -5.02%, CNS(=O)(=O)c1cn(CC(=O)N2CCN(c3cccc(C)c3C)CC2)cc1S(=O)(=O)NC 18.5%, Cc1cc(F)ccc1NC(=O)CCS(=O)(=O)c1ccc2c(c1)CC(C)N2C(=O)C1CC1 (stereo not given) 0.686%, NC(=O)C1CCN(C(=O)c2cccc(NC(=O)c3nsc4ccccc34)c2)CC1 3.9%, Cc1noc(-c2ccc(-c3noc(-c4cccc(F)c4)n3)cc2)n1 5.72%, O=C(C1COc2ccccc2O1)N1CCN(c2nc3ccc(F)cc3s2)CC1 (stereo not given) -1.51%, CSC1=NC2(CCN(C(=O)NC3CCCCC3)CC2)N=C1c1ccc(C)cc1 5.72%, O=C(C1COc2ccccc2O1)N(Cc1cccnc1)c1nc2ccc(Cl)cc2s1 (stereo not given) 12.5%, Cc1ccc(C#N)c(=O)n1CC(=O)Nc1ccccc1C(F)(F)F -7.42%, CCc1c(CN2CCN(c3cccc(C)c3C)CC2)csc1C 6.32%, Fc1ccc(CNc2ncnc3onc(-c4ccc(F)cc4)c23)cc1 42.4%, CCc1cccc(C)c1Nc1c(-c2ccccc2)nc2sccn12 -2.59%, CCOc1ccc(CNC(=O)CSc2cc(=O)n(CC)c3ccccc23)cc1 -34.8%, Nc1c(C(=O)Nc2ccc(OC(F)(F)F)cc2)nnn1Cc1ccccc1 -3.64%, Cn1c(=O)c2c(nc(SCC(=O)Nc3ccccc3)n2Cc2ccccc2F)n(C)c1=O 6.85%, CCCNC(=O)C1CCC(Cn2c(=O)c3sccc3n(Cc3ccccc3F)c2=O)CC1 (stereo not given) 11.4%, Cc1cccc(C)c1NC(=O)NCCc1c[nH]c2ccccc12 -0.943%, Cc1ccc2c(c1)-c1onc(C(=O)N3CCN(c4ccc(Cl)cc4)CC3)c1CO2 4.51%, O=C(NC1CCCCC1)c1ccc(Cn2c(SCc3ccc(F)cc3)nc3cccnc32)cc1 -3.01%, CCCCN(CC)C(=O)CSc1nc2n[nH]c(C)c2c(=N)n1-c1cccc(OC)c1 -1.25%, COc1cccc(N2CCN(c3ncnc4c3nc3n4CCCCC3)CC2)c1 9.89%, O=S(=O)(c1ccccc1)c1nnn2c1nc(NCc1ccc(F)cc1)c1sccc12 -13.2%, Brc1ccc(-c2nc3ccccn3c2Nc2ccc3c(c2)OCCO3)o1 -35.8%, COc1ccccc1CNC(=O)CCn1nc(C)c2c(C)n(-c3ccccc3)nc2c1=O 0.555%, COc1ccc(OCC(=O)NC2CC(=O)N(c3cccc(OC)c3)C2)cc1 (stereo not given) 11.6%, Cc1cccc(N(C)C(=O)CCS(=O)(=O)c2ccc3c(c2)oc(=O)n3C)c1 -0.449%, C=Cc1ccc(Cn2c(C(=O)O)c(CNC3CCCC3)c3ccc(C)cc32)cc1 0.323%, CCOC(=O)c1c(S(=O)(=O)N2CCC(C(=O)NCc3ccc(F)cc3)CC2)c(C)n(C)c1C -8.39%, COc1ccc(NC(=O)CN2CCN(Cc3ccc(F)cc3)S2(=O)=O)cc1Cl 5.3%, COc1ccc(NC(=O)c2cc(S(=O)(=O)N3CCCCCC3)cn2C)c(OC)c1 -5.97%, CC(C)(C(=O)NCC(F)(F)C(F)(F)F)C(=O)N[C@@H]1C(=O)Nc2ccccc2-c2ccccc21 -26.2%, CCOC(=O)c1c(C)[nH]c(C)c1S(=O)(=O)N1CCC(C(=O)N2CCN(c3ccccc3)CC2)CC1 21.9%, COc1ccc(OC)c(CNC(=O)c2c3c(nc4ccccc24)C(=O)N(C2CCCCC2)C3)c1 2.51%, O=C(NCc1ccccc1Cl)C1CCCN(S(=O)(=O)c2cccc3nsnc23)C1 (stereo not given) 9.49%
